# Assay results published in the supplement of paper PMC11417369.
# The other results are listed elsewhere or left out.
# Test system: PfSIP2 AP2 domain 1 (GST-tagged)
# Experiment: gcPBM binding intensity (ln(normalized median fluorescence intensity)); higher = stronger DNA binding
# How it was run: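 Alexa488 anti-GST antibody, scanned at 488 nm, detected GST-tagged P. falciparum DNA-binding domains that had been expressed in E. coli and incubated for 1 h on an Agilent 4 × 180k array. The array carried primer-extended double-stranded 36-bp intergenic genomic probes and negative controls. Binding intensity is the highest Masliner-normalised natural-log median intensity across replicate spots of either orientation of each probe.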
row,Sequence,gcPBM binding intensity (ln)
1,AAAAAGAAAAAACTTACACACATATATACCCCCATG [CACACA_site4463],8.04
2,AATAAAAAAATTAAAATTAAAAAATTAAAACTTAAA [CACACA_negctrl_site987],6.56
3,ATGGAAATTTTATCATGTACATATACCGTTGAATAA [XGTACX_site5420],7.03
4,TTATGCAAAAATAAATCAATATGTTGATATGTAAAT [GTGCAC_negctrl_site128],7.17
5,AACATATACTGTTTATGTACACATTGTTATATTAAT [XGTACX_site4276],7.05
6,ATATAATTTAATTTCTGTACATAAGAGAAAAAACAA [XGTACX_site4865],7.21
7,TACATTTTATGCATTTGTACACAAATAAATAAATAA [XGTACX_site2652],7.24
8,TTTTTTTTTTTTTATACACACATTAAAATAAAAAAG [CACACA_site3946],7.18
9,AAAGAAAAAAAAAAAACACACAAAAAAAATCAAAAT [CACACA_site2871],6.66
10,CTCTTCCTTAATTTTTGTACTTAAAATTTTTTTTTT [XGTACX_site1628],7.35
11,ATATCAATTTTTGGTGGTACGTAGGAAGTTTCAGAA [XGTACX_site6881],7.4
12,ACTTTAAAAAGATTCACACAAAATATATAAAAATAT [CACACA_site5334],6.89
13,AACCCCAAGCCGTACTGTACATATATTTTTATTTTA [XGTACX_site142],7.14
14,AAAAGTTGTATTTGCACACATAAAAAAAAGATATTA [CACACA_site3840],7.08
15,AAATTCAAACAAATTACACACATTTTTTTTTAATTT [CACACA_site3596],7.1
16,TCAAAGGAATTTTTATGTACATATAAACTTTATTCT [XGTACX_site3432],6.93
17,AAAAAAAAAAAAAAATGTACATATATATTTATATAT [XGTACX_site229],7.19
18,TAAAATCAATGTTCTTGTACTTAAAATGTTTGTTCT [XGTACX_site5490],6.96
19,TATTATTCTACTATTATATTCTATATTATTTATAGT [CACACA_negctrl_site499],6.9

row,Sequence,gcPBM binding intensity (ln)
1,ATATATCTATATAGAAATGTATATATATATATGTGT [TGCATGCA_negctrl_site349],7.32
2,AGTATAAAATTTGGTTGTACATTTTTAAAAAAATTA [XGTACX_site7519],6.81
3,AAAATTAAATTATTTACACACAATATTAAAATATTT [CACACA_site3244],6.88
4,TATAATATAAAAAAAAGTACACGAATTTTTTTTCAG [XGTACX_site6105],7.12
5,AAATAAATTTGACCAGTGCAATAACTTTGTATACCT [GTGCAC_site9446],7.64
6,ACAATATATTTTTGAGCATGCGCAAAAGAGAATGCA [TGCATGCA_site566],6.99
7,ATCCAAAAGAAAAATAGTACAGATATGAACAATATG [XGTACX_site6944],6.93
8,ATATTTATGTAATGTTTGATTTTTTTTTTATGTGTG [CACACA_negctrl_site1422],6.87
9,ACATATACATACATATGTACATATACATAAATATAT [XGTACX_site1285],7.27
10,CTATACAATAAAAATTGTACATACATATATGTTATA [XGTACX_site5309],7.02
11,ATAATATGTTATTAAGTGCATATTAATTATTATTAT,8.03
12,AATTTTTCTTTTTTTTGTACAGAATATATATTTTAT [XGTACX_site1419],6.91
13,AAAAAAAAAATTGAAAGTACACAAATGGGGTATTAT [XGTACX_site3960],6.79
14,TACTGTTTAAAATATACACACATAATCAAAAAAAAA [CACACA_site2510],7.07
15,TATATATTTACATATTGTACAATATAAAAATAATTA [XGTACX_site19],7.06
16,TCGTTATCCATCTTCACACATATATATAGTAATATA [CACACA_site5492],7.69
17,TATGTATAAATATTAACACACAAAAAAAAAAAAAAA [CACACA_site6938],6.94
18,AATAAGCAGAAACACACACACAAAAAAAAAAAAAAA [CACACA_site719],6.97
19,ATATAAACAAAGCAGTGCACGTAAACAAAACATATA [CACACA_negctrl_site1076],10.4

row,Sequence,gcPBM binding intensity (ln)
1,GTTTGATAACACCTACAAACTCTTTTTTTTTTTTTT [CACACA_negctrl_site1134],6.97
2,TACGAAAGGTAATATTGTACATTACAAAATTTTATA [XGTACX_site5512],6.86
3,AAATTTATAAATTAAAGTACATATTTCTTGAATATT [XGTACX_site859],6.81
4,TATTAAATTATATAGACACACATTATGTATATATAT [CACACA_site345],7.49
5,TATAGATACACTTTGTGTACATAAAAATTGTATTAA [XGTACX_site7137],6.76
6,CATAATATTAAATCAGTGCAAATATACAGAATAAAT [GTGCAC_site9786],7.75
7,AAATGAAGATTTAAATGTACGAGAGGGTATACAAAT [XGTACX_site5075],7.26
8,GACTTCTCCATATACACACACCAACAAATATAAAAA [CACACA_site7331],7.94
9,AAAGTAAAAATATACTGTACAAATTTTTTCCCCTCT [XGTACX_site171],6.94
10,AAAGAAAGCACATACACACACAAAAAAAAAAAAGAA [CACACA_site776],6.98
11,ATTTTTTAAAAAGTAACACACACTCTTATAAATAAC [CACACA_site7668],7.08
12,ATATTTATATACAAATGTACGCATATAATATATATA [XGTACX_site1232],7.5
13,AAACAAAAAAAAAAAAAAAAAAAAAAAAAAAAAAAA [GTGCAC_negctrl_site254],7.16
14,GATGCACTTTAAAAATGTACTTATACCTTTAATTGT [XGTACX_site6395],8.07
15,AGAGATTATAAAATATGTACTAAATATTAAATCTTA [XGTACX_site7050],6.62
16,AAAAAAATATTATAATATATATATATATATATATAT [GTGCAC_negctrl_site399],9.54
17,ATAGAATCTGGTAGCTGTACGAGTCGTAGAGTGCAG [XGTACX_site2026],8.04
18,AATATATACATATATGTACACACATTACAGATGTAC [CACACA_site8227],7.06
